According to the BET-seq Pho4 binding data (Le et al. 2018):
The list shows a part of the results. Values were computed here from the reads of four pooled replicates and scatter widely.

Molecular target: T1, Pho4 (S. cerevisiae) (UniProt P07270)
T1 sequence: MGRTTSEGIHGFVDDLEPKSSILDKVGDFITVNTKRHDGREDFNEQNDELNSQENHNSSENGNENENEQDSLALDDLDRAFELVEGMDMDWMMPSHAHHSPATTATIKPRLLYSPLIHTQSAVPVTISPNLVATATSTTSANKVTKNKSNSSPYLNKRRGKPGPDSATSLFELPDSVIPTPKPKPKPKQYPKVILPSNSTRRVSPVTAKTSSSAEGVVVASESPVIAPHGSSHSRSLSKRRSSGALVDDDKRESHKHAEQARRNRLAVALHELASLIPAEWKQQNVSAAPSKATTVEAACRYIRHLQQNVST
Experiment: relative binding free energy (BET-seq); higher = weaker binding
Details: reference: library average

Sequence	relative binding free energy [kcal/mol]
GAACTCACGTGGGGAG	0.19
GTTGCCACGTGGCTTT	-0.11
TGGATCACGTGCGATG	0.18
TTTATCACGTGGCTCG	0.08
TACAGCACGTGGGGGG	-0.25
TGTTGCACGTGCTTCT	-0.05
TGTTACACGTGTTTCT	0.03
ATCGACACGTGGGTTT	-0.02
CTTAGCACGTGGTCGG	-0.14
GTGGACACGTGGTCGA	-0.09
TCTAACACGTGTGGTA	0.03
CTTGGCACGTGAGGTC	0.12
TTCGCCACGTGGTATT	-0.09
TTGAGCACGTGTTCTA	-0.02
TTGGTCACGTGAGCCG	0.15
AATTTCACGTGCTATG	0.11
TAGGTCACGTGATAAG	0.22
CGTTCCACGTGTGTTT	0.1
AATTGCACGTGTAAAG	0.05
AATGGCACGTGTAGAT	0.05
ACGGTCACGTGGAAAG	0.14
AGGGGCACGTGGGTCC	-0.33
TTATACACGTGGTCTT	-0.15
TATAGCACGTGGGGGT	-0.19
CTGGTCACGTGGAGTT	0.25
TTAGTCACGTGGCTCG	0.02

Sequence	relative binding free energy [kcal/mol]
GTGCTCACGTGGTGTC	0.07
AGTTGCACGTGGAGGG	-0.06
TGGTGCACGTGCTGTG	-0.04
ATTGACACGTGGTCAT	-0.05
TTATTCACGTGGTACT	0.19
CGCTGCACGTGGGGGA	-0.11
GTTTACACGTGGTAGG	0.15
TTTGGCACGTGAGGCA	0.17
TCTAACACGTGGAGGT	0
TTTAGCACGTGGTATT	-0.13
TCTGGCACGTGCGGGA	-0.13
TGGGTCACGTGGTGCA	0.08
CGGGGCACGTGAGAGA	0.19
GGATTCACGTGATTTA	0.45
TTGATCACGTGTAAAG	0.27
GATGGCACGTGGCGAG	-0.16
TTGCTCACGTGGACGT	0.2
CGTGGCACGTGGTTGA	-0.2
TATTTCACGTGGCAGT	0.09
TTTTGCACGTGCGCGG	-0.12
ATGGGCACGTGTGGAT	0.01
TCGAGCACGTGCGGTG	-0.14
AGTAACACGTGGGGTA	-0.2
GTGAACACGTGGATGT	-0.01
TGAGTCACGTGTGGCG	0.11
GAGTACACGTGTTGTG	0.1

Sequence	relative binding free energy [kcal/mol]
CTAGACACGTGTGGGG	0.1
CGTGGCACGTGCTGTG	-0.16
CGGGACACGTGGTAGG	-0.02
GTTCTCACGTGGGTAA	-0.01
AATCTCACGTGATGTG	0.26
TGTATCACGTGACTTG	0.26
GAGCTCACGTGTTGGT	0.31
GATTACACGTGAGATG	0.45
TTACGCACGTGAGTGC	0.17
GAAGACACGTGTGTTT	0.02
GAGATCACGTGGCGTG	0.22
GGGGTCACGTGGATAT	0.2
ATGTCCACGTGAATGT	0.15
CGGTTCACGTGGGGAG	0.2
TTTTTCACGTGTGATG	0.28
TTGGCCACGTGGGGAG	-0.1
GGGTACACGTGGAGAT	0.27
TTGCGCACGTGGTAAG	-0.13
TAGATCACGTGGCTGT	0.03
CATGGCACGTGGGATT	-0.09
TTGGACACGTGGCGGG	-0.07
GGCTTCACGTGGAGTT	0.32
AGGCGCACGTGGTATT	-0.28
GCAGTCACGTGTTTTG	0.19
GCTCGCACGTGGGGGT	-0.2
AAAGTCACGTGGGTGC	-0.01

Sequence	relative binding free energy [kcal/mol]
TCGTGCACGTGTGTCA	0.07
CGAATCACGTGAGGGG	0.35
AAAAGCACGTGCTAGT	0.11
TGTGTCACGTGGGAAT	0.09
TGTTTCACGTGAGGCC	0.4
CAATTCACGTGATTGT	0.4
GGCTGCACGTGTGGCT	0.03
TGGTGCACGTGCGTAG	-0.13
TTGCACACGTGGATTG	0.09
CTAAGCACGTGTTGCT	0.14
ACTGTCACGTGGGGCT	-0.15
TTGTCCACGTGTATGT	0.07
TCTGGCACGTGTGGCA	0.06
TTGGGCACGTGATCCG	0.05
CGTAACACGTGATGTG	0.12
TAGTTCACGTGGCATG	0.21
TAGATCACGTGATTAT	0.28
TTGTTCACGTGCATAT	0.24
TGTCTCACGTGTTCTT	0.18
GTTCTCACGTGGGGGT	0.18
AAGTTCACGTGTGCAT	0.24
ATCGGCACGTGCGGGG	-0.16
TACTGCACGTGTAAGG	0.14
GGTTCCACGTGCGGGT	0.18
AGGTTCACGTGGATTT	0.27
TTTTACACGTGCTGTC	0.06

Sequence	relative binding free energy [kcal/mol]
AAAGTCACGTGTAGGT	0.2
TTAAGCACGTGGAAGT	0.01
AGGGTCACGTGTGTCC	0.24
GTGTACACGTGTAGCT	0.07
CTGGTCACGTGAGGTT	0.34
GGGGACACGTGCATGT	-0.01
CGGGTCACGTGGGCGA	-0.29
TGGGGCACGTGTTTAT	0.07
GATATCACGTGGTATA	-0.01
TGGGTCACGTGGGTGC	-0.03
TAATGCACGTGTGTAG	-0.03
TTGTCCACGTGGCGTT	0
GTTAACACGTGTCGGG	0.19
ATAGGCACGTGGGGCC	-0.27
GGGTGCACGTGAGTCT	0.1
TTATTCACGTGCGAAT	0.28
AGTTTCACGTGATTTG	0.3
AGATTCACGTGTCGGG	0.28
GAGTGCACGTGAGTTG	0.23
TGTGTCACGTGATAGA	0.18
ATTAGCACGTGATATG	-0.03
CTATTCACGTGATTTT	0.33
CGTTGCACGTGATTGA	0.12
AGGACCACGTGGTGTT	-0.04
GTTGTCACGTGATTAC	0.38
GTGTACACGTGTGAGG	0.16

Sequence	relative binding free energy [kcal/mol]
TGTTCCACGTGTATGG	0.18
AGTTTCACGTGTCATA	0.22
TTCTTCACGTGTTGAA	0.11
TGGAACACGTGCAGTT	-0.01
GGTGGCACGTGTACTT	0.21
CGCGTCACGTGTCAGT	0.12
ACCGTCACGTGGTGTT	0.07
CGTGTCACGTGAGAAT	0.32
GGAATCACGTGCGGTG	0.07
GTGGACACGTGGGGTA	-0.19
TGCGGCACGTGTCTGG	-0.1
TGGTGCACGTGGCTTT	-0.04
CGTTACACGTGTATAG	0.08
AGTCGCACGTGGCGGA	-0.14
GGCTGCACGTGTTTGA	0.06
TAAGTCACGTGGAAGT	0.07
TACAACACGTGTTTTT	0.13
AGTTGCACGTGTAATT	0.23
CTTTTCACGTGGGGGC	0.13
TGAAGCACGTGTTAGA	-0.14
TATATCACGTGGTCGG	0.13
TACGACACGTGTAGGT	0.18
TAAAACACGTGTTATT	-0.06
AGGTGCACGTGTACTG	-0.17
AAGGCCACGTGTGGGT	0
TTTTTCACGTGGTAAA	0.28

Sequence	relative binding free energy [kcal/mol]
GGAAACACGTGGAGGG	-0.06
GTCGTCACGTGGGTAA	0.03
AGGGCCACGTGGAGGA	-0.2
AAGTTCACGTGCTGAT	0.25
ATTGGCACGTGGCTGT	-0.18
GGTAACACGTGTACGG	0.11
GTATACACGTGTTTGT	0.04
TGGGTCACGTGCACTT	0.11
AGGTGCACGTGGTACG	-0.08
TACGGCACGTGTGTAT	-0.14
CGTTTCACGTGTGCGG	0.16
GCGGACACGTGGGGTA	-0.12
AGAAGCACGTGGGGTT	-0.21
GCGTGCACGTGGGAGG	-0.12
GTGCTCACGTGGTTAA	0.15
ATATTCACGTGTTGCT	0.27
AAGGTCACGTGTATGA	0.04
TCACGCACGTGTGTTG	-0.06
GGATGCACGTGGGGAA	0.01
GGAGGCACGTGAATTA	0.21
ATTGTCACGTGGATTA	0.15
TTATTCACGTGAATGG	0.39
TACGGCACGTGTGGGT	0.05
TCATTCACGTGTGGTC	0.45
AACGGCACGTGTGGAT	0.01
TTGCGCACGTGAAGGA	0.14

Sequence	relative binding free energy [kcal/mol]
GTGCGCACGTGGTAAG	-0.05
GCGGTCACGTGGTGCT	-0.04
CTGGACACGTGATGTG	0.19
GTGATCACGTGGACGG	0.05
TGTGACACGTGTTCGT	0.07
TTTGTCACGTGCAGTA	0.02
TTGTTCACGTGATTTT	0.39
GTTTTCACGTGTTGAT	0.14
TACGGCACGTGGTTTA	-0.09
ACTGTCACGTGTGTTG	0.02
GAGTGCACGTGTACGG	-0.07
TCTGCCACGTGGGTGG	-0.28
TTAATCACGTGAGTCG	0.32
ATTCACACGTGTGGTT	0.23
GGGAACACGTGATGCT	0.23
GTTCTCACGTGCGAGT	0.31
TGTTTCACGTGTTGTA	0.23
ATACGCACGTGTTGTT	-0.18
GGATGCACGTGTTTGG	-0.01
TTTGACACGTGAGGTG	0.18
GGGGGCACGTGGGCTA	-0.23
TTGAGCACGTGATGCA	0.15
ATTGGCACGTGCACGG	-0.13
TATAGCACGTGGGGAT	-0.2
GTGGACACGTGTTGTT	0.05
TGTATCACGTGTCATG	0.16

Sequence	relative binding free energy [kcal/mol]
TCGCTCACGTGGTAGT	0.04
GTGCACACGTGAAGGG	0.19
TAGGCCACGTGTATGT	-0.02
GGTGGCACGTGGTGCG	-0.07
TTCTGCACGTGAAGGT	0.15
TTTTGCACGTGCTTGC	0.01
GGCTGCACGTGTTAGT	0.17
TTACTCACGTGGTTTT	0.17
ATCTACACGTGGGATG	-0.01
GAGGACACGTGGTGCG	0.09
GGGGTCACGTGAGGCG	0.38
TTATACACGTGTTGTT	0.02
AGGAACACGTGATGGG	0.24
GTATACACGTGGGGTA	-0.03
GCAGGCACGTGGTGGG	-0.07
CGGTTCACGTGAGATG	0.3
AATTGCACGTGGGGGA	-0.15
TGTTACACGTGTTGCA	0.11
GTTAGCACGTGTTTTC	0.15
GCGGGCACGTGGTGGT	-0.09
CATGGCACGTGAGTTT	0.06
TGGCCCACGTGGGCGT	-0.22
